The labels stand for the following.
B1: CPEB3 Ribozyme (parent)
chain: UAACAGGGGGCCACAGCAGAAGCGUUCACGUCGCAGCCCCUGUCAGAUUCUGGUGAAUCUGCGAAUUCUGCUGUAUAUCUC

The source gives no read counts; variants with many changes may rest on few reads.

Consider 34 variants from the RNAGym collection of RNA variant scans (doi:10.1093/nar/gkz1192).

In this data set the parent is B1. In words: self-cleavage, relative activity (ratio to wild type); higher = more cleavage; in vitro, sequencing. In short, it runs like this:
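Relative activity compares each variant's cleaved/total read fraction with that of the unmutated ribozyme. To get these fractions, barcoded CPEB3 ribozyme libraries from rounds of error-prone PCR were transcribed with T7 RNA polymerase for 5 hours at 37°C and then given 15 min of DNase I treatment before EDTA was added. The RNAs were reverse transcribed with template switching and sequenced on Illumina, and DNA sequencing linked barcodes to variants. A minimum of 5 reads applied, and three batches were averaged.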
Consider UAGCAGGGGGCCACAGCCGAAGCGCUCACGUCGCAGCCCCUGUCAGAUUCUGGUGGAUCUGCGAAUUCUGCUGUAUAUCCC [A3G A18C U25C A56G U80C], for which the self-cleavage amounted to 0.06.

UAGCAGGGGGCCACGGCAGAAGCGUUCACGUCGCAGCCCCUGUCAGAUUCUGGUGAAUCUGCGAAUUCUGCUGUAUAUCAC [A3G A15G U80A]: the self-cleavage amounted to 0.61.

Take UAGCAGGGGGCCACAGCGGAAGCGUACACGUCGCAGCCCCCGUCAGAUUCUGGUGAGUCUGCGAAUUCUGCUGUAUAUCUC [A3G A18G U26A U41C A57G]: the self-cleavage is 0.29.

For UAGCAGGGGGCCACUGCAGAAGCGUCCACGUCGCAGCCCCAGUCAGAUUCUGGUGAAUCUGCGAAUUCUGCUGUAAAUCUC [A3G A15U U26C U41A U76A], the self-cleavage is 0.15.

For the variant UAGCAGGGGGCCACAGCGGAAGCGUUCACGUCGCAGCCCACGUCAGAUUCUGGUGAAUCUGCGAAUUCUGCUUUAUAUCUC [A3G A18G C40A U41C G73U], the self-cleavage was 0.64.

UAGCAGGGGGCCACGGCAGAAGCGUCCACGUCGCAGCCCCUGUCAGAUUCUGGUGAAUCCGCGAAUUCUGCUGUAUAUCUC [A3G A15G U26C U60C]: the self-cleavage turned out to be 0.19.

With UAGCAGGGGGCCACGGCAGAAGCGUACACGUCGCAGCCCCUGUCCGAUUCUGGUGAAUCUGCGAACUCUGCAGUAUAUCUC [A3G A15G U26A A45C U66C U72A], the self-cleavage is 0.07.

As to UAGCAGGGGGCCUCAGCAGAAGCGUUCACGUCGCAGCCCCUGUCAGAUUCUGGUGGAUCUGCGAAUUCCGCUGUAUAUCUC [A3G A13U A56G U69C], the self-cleavage is 0.35.

As for UAGCAGGGGGCCUCAGCAGAAGCGUUCACGUCGCAGCCCCUGUCGGAUUCUGGUGAAUCUGCGAAUUCUGCUGUUUAUCUC [A3G A13U A45G A75U], the self-cleavage turned out to be 1.16.

As for UAGCAGGGGGCCUCAGCAGAAGCGUUCACGUCGCAGCCCCUGUCAGAUUCUGGUGAAUCCGCGAGUCCUGCUGUAUAUCUC [A3G A13U U60C A65G U67C], the self-cleavage was 0.55.

For the variant UAGCAGGGGGCCACAGCUGAAGCGUACACGUCACAGCCCCUGUCAGAUUCUGGUGAAUCUGCGAAUUCUGCUGUAUAUCUC [A3G A18U U26A G33A], the self-cleavage was found to be 0.32.

As for UAGCAGGGGGCCACUGCAGAAGCGUUCAUGUCGCAGCCCCUGUCAGAUUCUGGUGAAUCUGCGUAUUCUGCUGUAUAUCUC [A3G A15U C29U A64U], the self-cleavage is 0.07.

In the case of UAGCAGGGGGCCACGGCAGAAGCGUUCACGUCGCAGCCCCUGUCAGAUUCUGGUGAAUCUGCGAAUUCUGCUGUAUACCUC [A3G A15G U78C], the self-cleavage was determined as 1.05.

With UAGCAGGGGGCCACAGCGGAAGCGUUCACAUCGCAGCCCCUAUCUGAUUCUGGUGAAUCUGCGAAUUCUGAUGUAUGUCUC [A3G A18G G30A G42A A45U C71A A77G], the self-cleavage is 0.07.

On to UAGCAGGGGGCCACAGCGGGAGCGUUCACGUCGCAGCCCCUGUCAGAUUCUGGUGAAUCUGCGAAUUCUGCUGUAUAUCUC [A3G A18G A20G], for which the self-cleavage stood at 0.71.

Turning to UAGCAGGGGGCCACGGCAGAAGCGCUCGCGUCGCAGCCCCUGUCAGAUUCUGGUGUAUCUGCGAAUUCUGCUGUAUAUCUC [A3G A15G U25C A28G A56U], the self-cleavage amounted to 0.

Take UAGCAGGGGGCCACGGCAGAAGCGUUCAUGUCGCAGCCCCUGUCAGGUUCUGGUGAAUCUGCGAAUUCUGCUGUAUAACUC [A3G A15G C29U A47G U78A]: the self-cleavage came to 0.14.

In the case of UAGCAGGGGGCCACGGCAGAAGCGUUCACGUCGCAGCCGCUGUCAGUUACUGGUGAAUCUGCGAAUCCUGCUGUAUAUCCC [A3G A15G C39G A47U U49A U67C U80C], the self-cleavage turned out to be 0.09.

UAGCAGGGGGCCACAGCUGAAGCGUCCACGUCGCGGCCCCUGUCAGAUUCUGGUGAAUCUGCGAAUUAUGCUGUAUAUCUC [A3G A18U U26C A35G C68A]: the self-cleavage was found to be 0.35.

Consider UAGCAGGGGGCCACAGCUGAAGCGUUCACGUCGCAGCCCCUGUCAGAUUCUGGUGAAUCUGCGAAUUCUGCUGUAAAUCUC [A3G A18U U76A], for which the self-cleavage was determined as 0.09.

For the variant UAGCAGGGGGCCACAGCCGAGGCGUUCACGUCGCAGCCCCUGUCAGAUUCUGGUGAAUCUGCGAAUUCUGCUGUAUAUCUC [A3G A18C A21G], the self-cleavage was determined as 0.19.

With UAGCAGGGGGCCACAGCUGAAGCGUUCACGCCGCAGCCCCUGCCAGAUUCUGGUUAAUCUGCGAGUUCUGCUGUAUAUCUC [A3G A18U U31C U43C G55U A65G], the self-cleavage was determined as 0.2.

In the case of UAGCAGGGGGCCACCGCAGAAGCGUUCACGUCGCGGCCCCUGUCAGAUACUGGUAAUUCUGCGAAUUCUGCUGUAUAUCUC [A3G A15C A35G U49A G55A A57U], the self-cleavage was found to be 0.8.

For the variant UAGCAGGGGGCCUCAGCAGAAGCGUUCAUGUCGCAGCCCCUGUCGGAUUCUGGUGAAUCUGCGAAUUCUGCUGUAUAUCUC [A3G A13U C29U A45G], the self-cleavage is 0.56.

UAGCAGGGGGCCACAGCGGAAGCGUUCACGACGCAGCCCCUGUCAGAUUCUGGUGAAUCUGUGAGUACCGCUGUAUAUCUC [A3G A18G U31A C62U A65G U67A U69C]: the self-cleavage is 0.23.

Turning to UAGCAGGGGGCCACUGCCGAAGUGUUCACGUCGCAGCCCCUGUCAGAUCCUGGUGAAUCUUCGAAUUCUGCUGUAUAUCUC [A3G A15U A18C C23U U49C G61U], the self-cleavage was 0.13.

UAGCAGGGGGCCACAGCUGAAGAGUUCACGUCGCAGCCCCUGCCGGAUACUGGUGAAUCUGCGAAUUCGGCUGUAUAUCUC [A3G A18U C23A U43C A45G U49A U69G]: the self-cleavage turned out to be 0.15.

Turning to UAGCAGGGGGCCUCAGCAGAAGCGUCCGCGUCGCGGCCCCUGUCAGAUUCUGGUGAAUCUGCGAAUUCUGCUGUAUAUCUC [A3G A13U U26C A28G A35G], the self-cleavage came to 1.04.

With UAGCAGGGGGCCACAGCGGAAGCGUUCACGUCGCAGCCCCUGUCAGAUCCUGGUGAAUCUGCGAAUUCUGCUGUAUAUCUC [A3G A18G U49C], the self-cleavage was determined as 0.46.

As to UAGCAGGGGGCCGCAGCAGAAGCGUUCACGUCGCAGCCCCUGUCAGAUCCUGGUGAAUCAGCGAAUUCUGCAGUAUAUCUC [A3G A13G U49C U60A U72A], the self-cleavage was 0.35.

In the case of UAGCAGGGGGCCACGGCAGAAGCGCUCAAGUCGCAGCCCCUGUCAGAUUCAGGUGAAUCUGCGAAUUCUGCUGUAUACCUC [A3G A15G U25C C29A U51A U78C], the self-cleavage stood at 0.59.

As to UAGCAGGGGGCCUCAGCAGAAGCGAUCACGUCGCAGCCCCUGUCAGAUUCUGGUGAAUCUGCGAAUUCUGCUGUAUAUCUC [A3G A13U U25A], the self-cleavage was 0.48.

Take UAGCAGGGGGCCACAGCCGAAGCGUUCACGUCGCAGCCCCUGUCAGAUUCUGGUGAAUCCGCGUAUUCUGCUGUAUAUCUC [A3G A18C U60C A64U]: the self-cleavage came to 0.17.

For the variant UAGCAGGGGGCCACUGCAGGAGCGUUCACGUCGCAGCCCCUGUCAGAUUCUGGUGAAUCUGCGGAUUCAGCUGUAUGUCUC [A3G A15U A20G A64G U69A A77G], the self-cleavage is 0.26.
